Reference: patent publication US20260358340A1, “MATRIX METALLOPROTEINASE 13 SENSITIVE PEPTIDES AND SENSORS” (Julius-Maximilians-Universitaet Wuerzburg, priority 2023, published 2026)
Not every detail of the peptide structures is certain; ends, links or a residue may be inferred. Where a SMILES comes first, the peptide text is derived from it. The star is where a group is joined. Dnp = O=[N+]([O-])c1ccc(*)c([N+](=O)[O-])c1; Mca = COc1ccc2c(CC(=O)*)cc(=O)oc2c1

What was measured:
Format in all cases: biochemical
MMP13 [1] = biological target: T1, MMP13 (Homo sapiens, UniProt P45452); assay: Cleavage of peptides by MMP-13; settings: role: substrate; for characterization of cleavage by MMP-13 (fast / moderate / slow cleaving peptide): characterization given in preferred embodiments
MMP9 [2] = biological target: T2, MMP9 (Homo sapiens, UniProt P14780); assay: FRET peptide cleavage assay, MMP9 activity and its inhibition; settings: role: substrate; no inhibitor; compared with MMP13
T2 sequence (P14780 94-707): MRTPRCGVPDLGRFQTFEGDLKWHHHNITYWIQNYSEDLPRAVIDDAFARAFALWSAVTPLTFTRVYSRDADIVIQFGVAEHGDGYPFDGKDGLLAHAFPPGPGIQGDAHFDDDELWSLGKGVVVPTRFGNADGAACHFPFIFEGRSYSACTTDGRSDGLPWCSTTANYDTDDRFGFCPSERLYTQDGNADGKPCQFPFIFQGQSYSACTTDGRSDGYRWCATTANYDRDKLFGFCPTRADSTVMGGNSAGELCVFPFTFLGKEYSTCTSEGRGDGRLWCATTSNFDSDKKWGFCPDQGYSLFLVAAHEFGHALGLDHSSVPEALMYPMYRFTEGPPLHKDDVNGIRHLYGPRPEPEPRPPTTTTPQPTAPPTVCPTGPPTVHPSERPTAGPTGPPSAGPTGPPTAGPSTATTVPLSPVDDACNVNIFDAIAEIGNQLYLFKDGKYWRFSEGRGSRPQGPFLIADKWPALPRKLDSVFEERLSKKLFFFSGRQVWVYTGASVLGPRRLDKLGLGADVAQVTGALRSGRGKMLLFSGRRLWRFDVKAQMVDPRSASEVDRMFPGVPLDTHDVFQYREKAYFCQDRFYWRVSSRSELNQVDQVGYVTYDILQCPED
Excerpt: (§1) A possible application of the peptides is the analysis of protease activity and the effect of substances on it. This can be utilized for understanding the role of proteases in physiological and pathological processes as well as for targeting proteases for disease diagnosis or treatment. […] 7-Methoxycoumain-4-acetic acid (Mca) is a is a fluorescent dye with an excitation peak at 322 nm and an emission peak at 381 nm. The absorbance spectrum of 2,4-dinitrophenyl (Dnp) overlaps with the emission spectrum of Mca, therefore it acts as a quencher. As long as both are in close proximity (up to about 5-10 nm), excitation of Mca leads to energy transfer to Dnp. Separation of the fluorophore-quencher pair by hydrolysis of the protease-specific cleavage site between both compounds liberates the fluorescence signal and the rise in its intensity can easily be monitored overtime. This method is sensitive and time efficient. It allows quantitative assessment of enzymatic activity and the developed fluorogenic substrates are suitable for high throughput screening, for example of protease inhibitors.

MMP13 [3] = biological target: T1, MMP13; assay: FRET peptide cleavage assay, MMP13 activity and its inhibition; settings: role: substrate; no inhibitor
Excerpt: as §1, with “overtime.” for “overtime. This method is sensitive and time efficient. It allows quantitative assessment of enzymatic activity and the developed fluorogenic substrates are suitable for high throughput screening, for example of protease inhibitors.”

MMP8 = MMP8 (Homo sapiens, UniProt P22894); assay: Cleavage of peptides by MMP-8; settings: role: substrate; 24 h
Sequence of UniProt P22894 (P22894 101-467): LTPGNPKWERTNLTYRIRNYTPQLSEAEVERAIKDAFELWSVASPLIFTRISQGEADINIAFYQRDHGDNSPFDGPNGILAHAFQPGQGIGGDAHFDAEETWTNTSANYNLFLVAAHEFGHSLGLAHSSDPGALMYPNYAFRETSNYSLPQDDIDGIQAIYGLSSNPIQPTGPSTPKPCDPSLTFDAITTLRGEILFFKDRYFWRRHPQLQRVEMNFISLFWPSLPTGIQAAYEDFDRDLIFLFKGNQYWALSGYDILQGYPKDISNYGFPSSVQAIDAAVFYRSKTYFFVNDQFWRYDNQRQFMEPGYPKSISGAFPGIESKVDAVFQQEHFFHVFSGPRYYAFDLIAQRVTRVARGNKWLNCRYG

MMP9 [4] = biological target: T2, MMP9; assay: Cleavage of peptides by MMP-9; settings: role: substrate; 24 h

SMILES | characterization of cleavage by MMP-13 (fast / moderate / slow cleaving peptide) (MMP13 [1]) | further results
CC(C)C[C@H](NC(=O)CNC(=O)[C@H](C)NC(=O)[C@H](C)NC(=O)CN)C(=O)N[C@@H](CC(C)C)C(=O)NCC(=O)N[C@@H](CCCCN)C(=O)O [SEQ ID NO: 4] (H-GAAGLLGK-OH) | moderate | 
CC(C)C[C@H](NC(=O)CNC(=O)[C@H](C)NC(=O)[C@H](C)NC(=O)CN)C(=O)N[C@@H](CCCNC(=N)N)C(=O)NCC(=O)NCC(=O)O [SEQ ID NO: 3] (H-GAAGLRGG-OH) | moderate | 
CC(C)C[C@H](NC(=O)CNC(=O)[C@H](C)NC(=O)[C@H](C)NC(=O)CN)C(=O)N[C@@H](CC(C)C)C(=O)NCC(=O)NCC(=O)O [SEQ ID NO: 1] (H-GAAGLLGG-OH) | moderate | extent of cleavage by MMP-13 compared with MMP-8 and MMP-9 (MMP13 [1]; time period of 24 h): cleaved equally strong by all three MMPs
CC(C)C[C@H](NC(=O)CNC(=O)[C@H](C)NC(=O)[C@@H]1CCCN1C(=O)CN)C(=O)N[C@@H](CC(C)C)C(=O)NCC(=O)N[C@@H](CCCCN)C(=O)O [SEQ ID NO: 7] (H-GPAGLLGK-OH) | fast | 
CC(C)C[C@H](NC(=O)CNC(=O)[C@H](C)NC(=O)[C@@H]1CCCN1C(=O)CN)C(=O)N[C@@H](CCCNC(=N)N)C(=O)NCC(=O)N[C@@H](CCCCN)C(=O)O [SEQ ID NO: 8] (H-GPAGLRGK-OH) | fast | 
COc1ccc2c(CC(=O)NCCCC[C@H](NC(=O)CNC(=O)CNC(=O)[C@H](CC(C)C)NC(=O)[C@H](CC(C)C)NC(=O)CNC(=O)[C@H](C)NC(=O)[C@@H]3CCCN3C(=O)CNC(=O)[C@H](CCCCNc3ccc([N+](=O)[O-])cc3[N+](=O)[O-])NC(=O)CNC(=O)[C@H](CO)NC(=O)CNC(=O)[C@@H](N)CO)C(=O)NCC(=O)N[C@@H](CO)C(=O)NCC(=O)N[C@@H](CO)C(=O)O)cc(=O)oc2c1 [FRET peptide] (H-SGSGK(Dnp)GPAGLLGGK(Mca)GSGS-OH) |  | cleavage of the FRET peptide by MMP9 (MMP9 [2]): more slowly; cleavage of the FRET peptide by MMP13 (MMP13 [3]): fast cleavage
CC(C)C[C@H](NC(=O)CNC(=O)[C@@H]1CCCN1C(=O)[C@@H]1CCCN1C(=O)CN)C(=O)N[C@H](C(=O)NCC(=O)N1CCC[C@H]1C(=O)O)[C@@H](C)O [SEQ ID NO: 9] (H-GPPGLTGP-OH) | slow | 
CC(C)C[C@H](NC(=O)CNC(=O)[C@H](C)NC(=O)[C@@H]1CCCN1C(=O)CN)C(=O)N[C@@H](CCCNC(=N)N)C(=O)NCC(=O)NCC(=O)O [SEQ ID NO: 6] (H-GPAGLRGG-OH) | fast | 
CC(C)C[C@H](NC(=O)CNC(=O)[C@H](C)NC(=O)[C@H](C)NC(=O)CN)C(=O)N[C@@H](CCCNC(=N)N)C(=O)NCC(=O)N[C@@H](CCCCN)C(=O)O [SEQ ID NO: 5] (H-GAAGLRGK-OH) | moderate | 
CC(C)C[C@H](NC(=O)CNC(=O)[C@H](C)NC(=O)[C@@H]1CCCN1C(=O)CN)C(=O)N[C@@H](CC(C)C)C(=O)NCC(=O)NCC(=O)O [SEQ ID NO: 2] (H-GPAGLLGG-OH) | fast | cleavage rate by MMP-13 (MMP13 [1]; incubation with MMP-13, time range of 24 h): high; cleavage rate by MMP-8 (MMP8): low; cleavage rate by MMP-9 (MMP9 [4]): low
